In PubChem BioAssay AID1508623 (National Center for Advancing Translational Sciences (NCATS), 2021):
Out of some 48,000 compounds screened, about 450 (0.94%) were called active. About 19% were inconclusive and are not listed. Calls follow the shape of the dose curve; as a rule, active = well fitted inhibition curve with a large enough effect; inconclusive = small, poorly fitted or top-dose-only effect; inactive = no such curve, though single readings can be large or run the other way. The list shows a part of the results.

Test: Primary qHTS for Identification of Small Molecule Inhibitors of Huntingtin Promoter Activity; also: nearly all actives have a fitted effect of over 50% in size
Settings: HEK293 HTT promoter firefly luciferase reporter (activity 0% = vehicle and -100% = no light), 24 h; series mostly up to 57.5 µM; activity change, negative = inhibition: at the top concentration
Procedure, shortened: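 Firefly luciferase signal from promoter-reporter HEK293 cells was scaled between vehicle (0%) and zero RLU (-100%). Compounds were tested at final concentrations of up to 57.5 uM over 24 h at 37 degrees C. PTC124 at 50 uM final served as control inhibitor.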

Activity change, negative = inhibition, inactive:
COC(=O)c1ccccc1NC(=O)CCCN1C(=O)C(c2ccccc2)Oc2cccnc21 (centres undefined) -15.5%
Cc1ccc(Nc2ncnc3c2cnn3-c2ccc(C)cc2)cc1 15.3%
COc1ccc(OCC(=O)N(Cc2cccc(OC)c2)C2CCS(=O)(=O)C2)cc1 (centres undefined) -2.35%
COc1ccc(C)cc1NS(=O)(=O)c1c(C)nc2sc(C)cn2c1=O -24.5%
CCOc1ccccc1NC(=O)CSc1ccc2nnc(CCNS(=O)(=O)c3ccccc3)n2n1 -1.23%
COCCNC(=O)CCCn1c(=O)[nH]c2ccsc2c1=O 3.92%
Brc1ccc(-c2noc(-c3ccccc3)n2)o1 34.7%
Cc1ccc(Cl)cc1N(C)C(=O)c1noc2c1CCCCC2 -19.7%
COc1ccccc1NC(=O)C1=C(C)Nc2nc(SCC(=O)c3ccc(C)cc3)nn2C1c1ccccc1C (centres undefined) 5.11%
COc1ccc(NC(=O)c2sc3nc(C)c(C(=O)Nc4ccc(C)cc4C)c(-c4ccccc4Cl)c3c2N)cc1 -23.9%
CSCCC(NS(=O)(=O)c1ccc2c(c1)oc(=O)n2C)C(=O)NCc1ccc(F)cc1 (centres undefined) -11.8%
COc1ccc(-n2cc(C(=O)N(C)c3cc(C)ccc3OC)c3ccccc3c2=O)cc1 -18.3%
CCOc1ccc(NS(=O)(=O)c2ccc3[nH]cc(C(=O)NCCOC)c(=O)c3c2)cc1 18.7%
CN(C)CCNC(=O)CCCn1c(=O)c2cccn2c2ccccc21 -9.05%
CC1=C(C(=O)Nc2cccnc2)C(c2ccccc2)n2nc(SCc3ccccc3)nc2N1 (centres undefined) -2.64%
O=C(Cn1nc(-c2ccccc2)c2cnc3ccccc3c21)Nc1ccccc1 -4.88%
Cc1ccc(Cn2nnc3sc4c(c3c2=O)CCC(C)C4)cc1 (centres undefined) -11.6%
CCC(=O)N1CCc2cc(CNS(=O)(=O)c3c(C)cc(C)cc3C)ccc21 -15.9%
Cc1ccc2nc(-c3ccc(Cl)c(NC(=O)c4ccc5c(c4)OCCO5)c3)oc2c1 -18.8%
Cc1nnc(NCc2ccc(Cl)cc2)c2c1nnn2Cc1ccc(F)cc1 -5.62%
COC(=O)c1ccccc1NC(=O)c1cc(-c2ccc(Cl)cc2)on1 -0.489%
Cc1nc2ccccc2n1CCc1nc2c3ccccc3nc(SCC(=O)Nc3cccc(C(F)(F)F)c3)n2n1 -17.5%
CCc1ccc2ncc(S(=O)(=O)c3ccc(Cl)cc3)c(N3CCN(CC)CC3)c2c1 -19.2%
Cc1cc(C)nc(NS(=O)(=O)c2ccc(NC(=O)c3ccccc3O)cc2)n1 -9.52%
COc1ccc2c(Sc3ccccc3)c(C(=O)NCC(C)c3ccccc3)[nH]c2c1 (centres undefined) 15.6%
Cc1cc(C)cc(-n2c(SCC(=O)N3CCCC3)nc3c([nH]c4ccccc43)c2=O)c1 -9.73%
O=C(CCC1N=C2c3ccccc3N=C(SCc3ccccc3Cl)N2C1=O)NCCc1ccccc1 (centres undefined) -1.89%
Cc1ccccc1NC(=O)CSc1nc(-c2ccc(F)cc2)nc2c1Cc1ccccc1O2 1.03%
COc1ccc(NC(=O)C2CCN(S(=O)(=O)c3ccc4[nH]c(=O)ccc4c3)CC2)cc1Cl -12%
COc1cc(OC)c(NC(=O)C(c2ccccc2)N2Cc3ccccc3C2=O)cc1Cl (centres undefined) -21.6%
CCc1nnc(SCc2cccc(F)c2)c2cc3sc(C)cc3n12 -22.8%
CCOc1ccc(N2CC(c3nc4ccccc4n3CCCOc3ccccc3OC)CC2=O)cc1 (centres undefined) -28.4%
CCS(=O)(=O)N1CC(=O)N(c2ccc(Cl)cc2C)C(C)(C(=O)NC2CCCCCC2)C1 (centres undefined) -1.23%
CC(C)CN(CCCNC(=O)c1cc(-c2ccc(Br)s2)nc2ccccc12)CC(C)C -22.8%
COc1ccc(CCNC(=O)C2(c3cccs3)CCOCC2)cc1 -12.5%
COCCCNC(=O)c1ccc(Cn2c(=O)c3ccccc3n(CC(=O)Nc3c(C)cccc3C)c2=O)cc1 -8.68%
CCCCCCNc1nc2c(c(=O)n(C)c(=O)n2C)n1Cc1cccc(C)c1 -21.8%
CCOc1cc(C(=O)Nc2ccc3nc(Nc4cccc(Cl)c4)cc(C)c3c2)cc(OCC)c1OCC -11.1%
Cc1nnc(SCc2cc(=O)n3cccc(C)c3n2)s1 14.5%
Cc1nn2c(C)c(C(=O)N3CCN(c4ccccc4F)CC3)cnc2c1-c1ccc(F)cc1 -6.53%
Cc1cccc(CCNC(=O)C2CCC(CNS(=O)(=O)c3ccccc3)CC2)c1 (centres undefined) 0.957%
CCCC(CCC)C(=O)Nc1cccc(-c2nc3cccnc3s2)c1C -10.1%
CNS(=O)(=O)Cc1ccc2[nH]cc(CCN(C)C)c2c1
O=C(Nc1ccc(F)c(Cl)c1)C1CCN(C(=O)c2ccc(F)cc2)CC1 -19.2%
N#Cc1ccccc1Cn1c(=O)n(CCCC(=O)NCc2ccccc2Cl)c(=O)c2ccccc21 0.612%
Cc1ccc(-c2cc3ncc(C(=O)c4cc(Cl)c(C)cc4O)cn3n2)cc1 1.21%
CCN(C(=O)CSc1ncc2c(n1)-c1cc(Cl)ccc1N(Cc1ccccc1)S2(=O)=O)c1cccc(C)c1 -15.2%
CCOc1ccc(Br)cc1C1C(C(=O)OC)=C(C)NC2=C1C(=O)c1ccccc12 (centres undefined) -19.7%
CCc1c(C)sc2c1CCN(C(=O)Nc1ccccc1C(=O)OC)C2c1ccc(OC)cc1 (centres undefined) -9.01%
COc1ccc(OC)c(C2Nc3c(C)cc(C)cc3-c3cc(C)nn32)c1 (centres undefined) -24.8% [at 11.5 µM]
Cc1ccc(NS(=O)(=O)c2ccc3c(c2)CC(=O)N3)cc1Cl -17.9%
O=C(NCc1ccc(Cl)cc1)C1=Cc2cc(Br)ccc2OC1 -16.3%
CCC(=O)N1CCc2cc(Br)cc(S(=O)(=O)N3CCCC(C(=O)Nc4cc(C)ccc4OC)C3)c21 (centres undefined) -3.94%
CCn1c(=O)cc(OCC(=O)N(C)c2ccc(OC)cc2)c2ccccc21 11.5%
CCC(CC)(CC(=O)Nc1cccc(/C=C/c2nc(C3CCC3)cs2)c1)C(=O)O 23.3%
Cc1ccc(Cl)cc1N1CCN(C(=O)c2cc3ccc4cccnc4c3[nH]2)CC1 11.4%
NC(=O)c1ncn([C@@H]2O[C@H](CO)[C@@H](O)[C@H]2O)n1 -13.6%
COc1cc(OC)c(NC(=O)c2c(N3CCCC3=O)c3cc(C)ccc3n2C)cc1Cl -2.57%
COc1ccc(Cl)cc1C(=O)Nc1ccc2nc(Nc3cccc(Cl)c3)cc(C)c2c1 -18.7%
CCn1c(=O)c2cc(C(=O)NCCCN3CCN(c4ccc(F)cc4)CC3)sc2c2ccccc21 0.0507%
CCOc1ccccc1NC(=O)Cn1ncc2c([nH]c3ccccc32)c1=O -8.65%
Cc1ccccc1OCC(=O)Nc1nnc(S(=O)(=O)N2CCCC2)s1 -11%
CC(C)Oc1ccc(CNC(=O)c2ccc3c(c2)nc2n3CCCCC2)cc1 43.6%
CCOC(=O)[C@H](CCc1ccccc1)N[C@@H](C)C(=O)N1[C@H](C(=O)O)C[C@@H]2CCC[C@@H]21 -3.12%
COc1ccc(C2=C(C)C(=O)N(Cc3ccc(C(=O)NC(C)c4ccccc4)cc3)S2(=O)=O)cc1 (centres undefined) -7.09%
Cc1cc(=O)n2nc(N3CCC(C(=O)Nc4c(C)cccc4C)CC3)sc2n1 -15.2%
CC1CCN(S(=O)(=O)c2cc3c4c(c2)C(C)C(=O)N4CCC3)CC1 (centres undefined) -14.5%
O=C(NC1CCCCCC1)C1c2ccccc2C(=O)N1Cc1ccc(F)cc1 (centres undefined) -4.97%
COc1ccc(CNC(=O)CN2C(=O)CSc3ccc(S(=O)(=O)N(C)C)cc32)cc1 -1.9%
CCc1cccc(NC(=O)Cn2c(=O)n(CCC(=O)NCc3ccccc3Cl)c(=O)c3sccc32)c1 -5.9%
Oc1c(C(c2ccccc2)N2CCOCC2)sc2nc(-c3ccco3)nn12 (centres undefined) -0.968%
Nc1c(C(=O)Nc2cccc(F)c2)nnn1-c1cccc(C(F)(F)F)c1 32.2%
Cc1cc(C)cc(NC(=O)c2sc3nc4n(c(=O)c3c2C)N=C(c2ccccc2)CS4)c1 13.8%
O=C(Cn1ncc2c3ccccc3n(Cc3cccc(Cl)c3)c2c1=O)NCCCN1CCCCC1 1.35%
CCOCCCNc1nc2c(S(=O)(=O)c3ccc(CC)cc3)nnn2c2ccc(Cl)cc12 5.89%
Cc1ccc(CNC(=O)Cn2c(=O)cc(C)c3c(C)nn(-c4cccc(F)c4)c32)cc1 3.23%
Cc1ccc(C)c(N2CCN(S(=O)(=O)c3ccc(-c4cnc(C5CC5)o4)cc3)CC2)c1 -18.1%
Cc1ccc(NC(=O)CSc2nc(-c3cccs3)nc3cc(=O)[nH]n23)cc1C 6.6%
CCOc1ccccc1CN1CCc2nc(N3CCN(C)CC3)ncc2C1 -12.8%
O=C(NCCc1ccccc1)C1CCN(Cc2cc3ccccc3n2Cc2ccccc2)CC1 -8.91%
COc1ccc(-c2cn3cccnc3n2)cc1NC(=O)Nc1cc(C)ccc1C 24.2%
CCOc1ccc(-c2cc(C(=O)NC(C)c3ccccc3)c3ccccc3n2)cc1 (centres undefined) 4.4%
COc1ccc(COC(=O)C2=C(C)NC(=O)CC2c2cccc(Cl)c2Cl)cc1 (centres undefined) -9.38%
CN1C(C(=O)c2ccccc2)=C(NC(=O)c2ccc(F)cc2)c2ccccc2S1(=O)=O -15.7%
O=C(Nc1ccc(C(=O)N2CCN(c3ccccc3F)CC2)cc1)c1nsc2ccccc12 -21.2%
CN(C)CCN(Cc1ccco1)C(=O)c1cc2c(s1)-c1ccccc1OC2 -27.6%
CCOC(=O)N1CCc2c(sc3c2c(=O)n(-c2ccc(F)cc2)c(=O)n3CC(=O)c2ccc(Cl)cc2)C1 -9.38%
Cc1cccc(C(=O)NC2(C(F)(F)F)N=C(c3ccccc3)N(C3CCCCC3)C2=O)c1 (centres undefined) 2.39%
COc1ccc([C@@H]2Sc3ccccc3NC(=O)[C@@H]2O)cc1 -22%
CC(=O)C1=C(c2ccc(F)cc2)N(C(C)=O)n2c(nnc2C2CCCCC2)S1 -11.9%
COC(=O)[C@H]1[C@H]2C[C@@H]3c4[nH]c5cc(OC)ccc5c4CCN3C[C@H]2C[C@@H](OC(=O)COc2ccc(OC)cc2)[C@@H]1OC -6.77%
CCOc1ccc(C(=O)NCC(c2ccc(Cl)cc2)N2CCCCC2)cc1 (centres undefined) 8.39%
CCCCNc1ccc(-c2nc(-c3ccccn3)no2)cc1[N+](=O)[O-] 27%
COc1ccc(-c2nnn3c2nc(NCc2ccc(C)cc2)c2ccccc23)cc1 -8.22%
